For the assay, the target named is Xcc NAMPT quadruple mutant (Xanthomonas campestris pv. campestris, UniProt A0A0H2X5R2, H175F/I224F/I332F/V291F). The conditions noted are these: ITC. For orientation: Isothermal titration calorimetry measures the heat released or taken up as one component is titrated into another.

This is an account of results in PMC10907753 (Communications Biology, 2024).

Take `NC(=O)c1cccnc1` [NAM, nicotinamide]: the “affinity between the quadruple mutant and NAM” value was “undetectable”.
